# Results reported in the supplement of paper PMC8728848.
# This is one part of the list.
# What was measured:
# Assay in all cases: glycan array binding signal (z-score within array); higher = stronger binding
# Settings in all cases: glycan notation: IUPAC condensed, linker removed
# [1] = molecular target: Fuc(a1-2)[Gal(a1-3)]Gal(b1-4)GlcNAc(b1-2)Man(a1-3)[Fuc(a1-2)[Gal(a1-3)]Gal(b1-4)GlcNAc(b1-2)Man(a1-6)]Man(b1-4)GlcNAc(b1-4)[Fuc(a1-6)]GlcNAc
# In short: (§1)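 From the Consortium for Functional Glycomics database, 3228 arrays were curated, keeping only those whose protein sequence was available. Binding is given as a within-array Z-score averaged across arrays sharing a protein sequence and across linkers. Negative Z-scores can be read as non-binding.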
# [2] = molecular target: Fuc(a1-2)[Gal(a1-3)]Gal(b1-4)GlcNAc(b1-3)GalNAc
# In short: as §1
# [3] = molecular target: Fuc(a1-2)[Gal(a1-3)]Gal(b1-4)GlcNAc(b1-3)[Fuc(a1-2)[Gal(a1-3)]Gal(b1-4)GlcNAc(b1-6)]GalNAc
# In short: as §1
# [4] = molecular target: Fuc(a1-2)[Gal(a1-3)]Gal(b1-4)GlcNAc(b1-6)GalNAc
# In short: as §1
# [5] = molecular target: Fuc(a1-2)[Gal(a1-3)]Gal(b1-4)[Fuc(a1-3)]Glc
# In short: as §1
# [6] = molecular target: Fuc(a1-2)[Gal(a1-3)]Gal(b1-4)[Fuc(a1-3)]GlcNAc
# In short: as §1
# [7] = molecular target: Fuc(a1-2)[Gal(a1-3)]Gal(b1-4)[Fuc(a1-3)]GlcNAc(b1-3)GalNAc
# In short: as §1
# [8] = molecular target: Fuc(a1-2)[Gal(a1-4)]Gal(b1-4)GlcNAc
# In short: as §1
# [9] = molecular target: Fuc(a1-2)[GalNAc(a1-3)]Gal
# In short: as §1
# [10] = molecular target: Fuc(a1-2)[GalNAc(a1-3)]Gal(b1-3)GalNAc(a1-3)[Fuc(a1-2)]Gal(b1-4)GlcNAc
# In short: as §1
# [11] = molecular target: Fuc(a1-2)[GalNAc(a1-3)]Gal(b1-3)GalNAc(b1-3)Gal(a1-4)Gal(b1-4)Glc
# In short: as §1
# [12] = molecular target: Fuc(a1-2)[GalNAc(a1-3)]Gal(b1-3)GlcNAc
# In short: as §1
# [13] = molecular target: Fuc(a1-2)[GalNAc(a1-3)]Gal(b1-3)GlcNAc(b1-2)Man(a1-3)[Fuc(a1-2)[GalNAc(a1-3)]Gal(b1-3)GlcNAc(b1-2)Man(a1-6)]Man(b1-4)GlcNAc(b1-4)GlcNAc
# In short: as §1
# [14] = molecular target: Fuc(a1-2)[GalNAc(a1-3)]Gal(b1-3)GlcNAc(b1-2)Man(a1-3)[Fuc(a1-2)[GalNAc(a1-3)]Gal(b1-3)GlcNAc(b1-2)Man(a1-6)]Man(b1-4)GlcNAc(b1-4)[Fuc(a1-6)]GlcNAc
# In short: as §1
# [15] = molecular target: Fuc(a1-2)[GalNAc(a1-3)]Gal(b1-3)GlcNAc(b1-3)GalNAc
# In short: as §1
# [16] = molecular target: Fuc(a1-2)[GalNAc(a1-3)]Gal(b1-3)GlcNAc(b1-6)GalNAc
# In short: as §1
# [17] = molecular target: Fuc(a1-2)[GalNAc(a1-3)]Gal(b1-4)Glc
# In short: as §1
# [18] = molecular target: Fuc(a1-2)[GalNAc(a1-3)]Gal(b1-4)GlcNAc
# In short: as §1
# [19] = molecular target: Fuc(a1-2)[GalNAc(a1-3)]Gal(b1-4)GlcNAc(b1-2)Man
# In short: as §1
# [20] = molecular target: Fuc(a1-2)[GalNAc(a1-3)]Gal(b1-4)GlcNAc(b1-2)Man(a1-3)[Fuc(a1-2)[GalNAc(a1-3)]Gal(b1-4)GlcNAc(b1-2)Man(a1-6)]Man(b1-4)GlcNAc(b1-4)GlcNAc
# In short: as §1
# [21] = molecular target: Fuc(a1-2)[GalNAc(a1-3)]Gal(b1-4)GlcNAc(b1-2)Man(a1-3)[Fuc(a1-2)[GalNAc(a1-3)]Gal(b1-4)GlcNAc(b1-2)Man(a1-6)]Man(b1-4)GlcNAc(b1-4)[Fuc(a1-6)]GlcNAc
# In short: as §1
# [22] = molecular target: Fuc(a1-2)[GalNAc(a1-3)]Gal(b1-4)GlcNAc(b1-3)Gal(b1-4)GlcNAc
# In short: as §1
# [23] = molecular target: Fuc(a1-2)[GalNAc(a1-3)]Gal(b1-4)GlcNAc(b1-3)Gal(b1-4)GlcNAc(b1-3)Gal(b1-4)GlcNAc
# In short: as §1
# [24] = molecular target: Fuc(a1-2)[GalNAc(a1-3)]Gal(b1-4)GlcNAc(b1-3)GalNAc
# In short: as §1
# [25] = molecular target: Fuc(a1-2)[GalNAc(a1-3)]Gal(b1-4)GlcNAc(b1-3)[Fuc(a1-2)[GalNAc(a1-3)]Gal(b1-4)GlcNAc(b1-6)]GalNAc
# In short: as §1
# [26] = molecular target: Fuc(a1-2)[GalNAc(a1-3)]Gal(b1-4)GlcNAc(b1-6)GalNAc
# In short: as §1
# [27] = molecular target: Fuc(a1-2)[GalNAc(a1-3)]Gal(b1-4)[Fuc(a1-3)]GlcNAc
# In short: as §1
# [28] = molecular target: Fuc(a1-2)[GalNAc(a1-3)]Gal(b1-4)[Fuc(a1-3)]GlcNAc(b1-3)GalNAc
# In short: as §1
# [29] = molecular target: Fuc(a1-2)[GalNAc(a1-4)]Gal(b1-4)GlcNAc
# In short: as §1
# [30] = molecular target: Fuc(a1-2)[GalNAc(b1-3)]Gal
# In short: as §1
# [31] = molecular target: Fuc(a1-3)GlcNAc
# In short: as §1
# [32] = molecular target: Fuc(a1-3)[Gal(b1-4)]Glc6S
# In short: as §1
# [33] = molecular target: Fuc(a1-3)[Gal(b1-4)]GlcNAc
# In short: as §1
# [34] = molecular target: Fuc(a1-3)[Gal(b1-4)]GlcNAc(b1-2)Man
# In short: as §1
# [35] = molecular target: Fuc(a1-3)[Gal(b1-4)]GlcNAc(b1-2)Man(a1-3)[Fuc(a1-3)[Gal(b1-4)]GlcNAc(b1-2)Man(a1-6)]Man(b1-4)GlcNAc(b1-4)GlcNAc
# In short: as §1
# [36] = molecular target: Fuc(a1-3)[Gal(b1-4)]GlcNAc(b1-2)Man(a1-3)[Fuc(a1-3)[Gal(b1-4)]GlcNAc(b1-2)Man(a1-6)]Man(b1-4)GlcNAc(b1-4)[Fuc(a1-6)]GlcNAc
# In short: as §1
# [37] = molecular target: Fuc(a1-3)[Gal(b1-4)]GlcNAc(b1-3)Gal(b1-3)[Fuc(a1-4)]GlcNAc
# In short: as §1
# [38] = molecular target: Fuc(a1-3)[Gal(b1-4)]GlcNAc(b1-3)Gal(b1-4)[Fuc(a1-3)]GlcNAc
# In short: as §1
# [39] = molecular target: Fuc(a1-3)[Gal(b1-4)]GlcNAc(b1-3)Gal(b1-4)[Fuc(a1-3)]GlcNAc(b1-3)Gal(b1-4)[Fuc(a1-3)]GlcNAc
# In short: as §1
# [40] = molecular target: Fuc(a1-3)[Gal(b1-4)]GlcNAc(b1-3)GalNAc
# In short: as §1
# [41] = molecular target: Fuc(a1-3)[Gal(b1-4)]GlcNAc(b1-6)GalNAc
# In short: as §1
# [42] = molecular target: Fuc(a1-3)[Gal(b1-4)]GlcNAc(b1-6)[Gal(b1-3)GlcNAc(b1-3)]Gal(b1-4)Glc
# In short: as §1
# [43] = molecular target: Fuc(a1-3)[Gal(b1-4)]GlcNAc6S
# In short: as §1
# [44] = molecular target: Fuc(a1-3)[Gal3S(b1-4)]Glc
# In short: as §1
# [45] = molecular target: Fuc(a1-3)[Gal3S(b1-4)]GlcNAc
# In short: as §1
# [46] = molecular target: Fuc(a1-3)[Gal3S(b1-4)]GlcNAc6S
# In short: as §1
# [47] = molecular target: Fuc(a1-3)[GalNAc(b1-4)]GlcNAc
# In short: as §1
# [48] = molecular target: Fuc(a1-3)[GalNAc(b1-4)]GlcNAc6S
# In short: as §1
# [49] = molecular target: Fuc(a1-4)GlcNAc
# In short: as §1
# [50] = molecular target: Fuc(b1-3)GlcNAc
# In short: as §1
# [51] = molecular target: Gal(a1-2)Gal
# In short: as §1
# [52] = molecular target: Gal(a1-3)Gal
# In short: as §1
# [53] = molecular target: Gal(a1-3)Gal(b1-3)GlcNAc
# In short: as §1
# [54] = molecular target: Gal(a1-3)Gal(b1-3)GlcNAc(b1-2)Man
# In short: as §1
# [55] = molecular target: Gal(a1-3)Gal(b1-3)GlcNAc(b1-2)Man(a1-3)[Gal(a1-3)Gal(b1-3)GlcNAc(b1-2)Man(a1-6)]Man(b1-4)GlcNAc(b1-4)GlcNAc
# In short: as §1
# [56] = molecular target: Gal(a1-3)Gal(b1-3)GlcNAc(b1-3)GalNAc
# In short: as §1
# [57] = molecular target: Gal(a1-3)Gal(b1-3)GlcNAc(b1-6)GalNAc
# In short: as §1
# [58] = molecular target: Gal(a1-3)Gal(b1-3)[Fuc(a1-4)]GlcNAc(b1-2)Man(a1-3)[Gal(a1-3)Gal(b1-3)[Fuc(a1-4)]GlcNAc(b1-2)Man(a1-6)]Man(b1-4)GlcNAc(b1-4)GlcNAc
# In short: as §1
# [59] = molecular target: Gal(a1-3)Gal(b1-4)Glc
# In short: as §1
# [60] = molecular target: Gal(a1-3)Gal(b1-4)GlcNAc
# In short: as §1
binder,measurement,setting,value
rCnSL-proB (Clitocybe nebularis) (protein) PTFSPIFALLAFLPFGTLASLLPQTQLVFRINPNLPGPNDVFVGYRGTNNVVGAIYERDGIKDTPMNNGADAELGPGSYITDDLFTAQIFASGSAGNNPGTTATVCKIYADGVQWRGAPKGYLPVLYFGNGQAAEQTRQTYLQGLDIPGTAIRFANLAKTPNQGPTAPRQMVVPSGGLQTLLKASCFPANHAALPQVLSYFNVRAALPPGWNIRTGPEFPNWTN,glycan array binding signal (z-score),[1],0.846
same,glycan array binding signal (z-score),[2],-0.036
same,glycan array binding signal (z-score),[3],0.126
same,glycan array binding signal (z-score),[4],-0.048
same,glycan array binding signal (z-score),[5],0.298
same,glycan array binding signal (z-score),[6],0.125
same,glycan array binding signal (z-score),[7],0.632
same,glycan array binding signal (z-score),[8],-0.215
same,glycan array binding signal (z-score),[9],-0.176
same,glycan array binding signal (z-score),[10],1.5
same,glycan array binding signal (z-score),[11],-0.508
same,glycan array binding signal (z-score),[12],0.135
same,glycan array binding signal (z-score),[13],-0.127
same,glycan array binding signal (z-score),[14],3.9
same,glycan array binding signal (z-score),[15],0.307
same,glycan array binding signal (z-score),[16],-0.492
same,glycan array binding signal (z-score),[17],0.269
same,glycan array binding signal (z-score),[18],-0.513
same,glycan array binding signal (z-score),[19],-0.606
same,glycan array binding signal (z-score),[20],-0.08
same,glycan array binding signal (z-score),[21],1.36
same,glycan array binding signal (z-score),[22],-0.679
same,glycan array binding signal (z-score),[23],0.895
same,glycan array binding signal (z-score),[24],-0.544
same,glycan array binding signal (z-score),[25],-0.374
same,glycan array binding signal (z-score),[26],-0.767
same,glycan array binding signal (z-score),[27],-0.654
same,glycan array binding signal (z-score),[28],0.31
same,glycan array binding signal (z-score),[29],-1.11
same,glycan array binding signal (z-score),[30],0.306
same,glycan array binding signal (z-score),[31],-0.77
same,glycan array binding signal (z-score),[32],-0.107
same,glycan array binding signal (z-score),[33],-0.518
same,glycan array binding signal (z-score),[34],-0.565
same,glycan array binding signal (z-score),[35],-0.418
same,glycan array binding signal (z-score),[36],1.33
same,glycan array binding signal (z-score),[37],-0.344
same,glycan array binding signal (z-score),[38],0.183
same,glycan array binding signal (z-score),[39],0.411
same,glycan array binding signal (z-score),[40],-0.061
same,glycan array binding signal (z-score),[41],0.286
same,glycan array binding signal (z-score),[42],-0.826
same,glycan array binding signal (z-score),[43],0.15
same,glycan array binding signal (z-score),[44],-0.261
same,glycan array binding signal (z-score),[45],-0.434
same,glycan array binding signal (z-score),[46],-0.471
same,glycan array binding signal (z-score),[47],-0.057
same,glycan array binding signal (z-score),[48],-0.381
same,glycan array binding signal (z-score),[49],-0.194
same,glycan array binding signal (z-score),[50],-0.461
same,glycan array binding signal (z-score),[51],-0.088
same,glycan array binding signal (z-score),[52],-0.219
same,glycan array binding signal (z-score),[53],1.26
same,glycan array binding signal (z-score),[54],0.478
same,glycan array binding signal (z-score),[55],-0.093
same,glycan array binding signal (z-score),[56],-0.424
same,glycan array binding signal (z-score),[57],-0.312
same,glycan array binding signal (z-score),[58],0.078
same,glycan array binding signal (z-score),[59],-0.078
same,glycan array binding signal (z-score),[60],-0.349
